From PubChem BioAssay (NCI) come the findings set out here.

Where “and” joins values, the source holds several entries; their conditions need not be identical. Equal entries are not always repeated.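 Protocol summary: plate cells (96-well), add compound at 5 concentrations, incubate 48 h, interpolate endpoints linearly. GI50: concentration for 50% inhibition of growth. The concentration for full growth arrest is given as TGI.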

This assay concerns NCI-H322M lung. Nature of the assay: NCI-60 cell line screen, 48 h.
In the case of `CSc1csc(-c2ccc(-c3ccc(-c4cc(SC)cs4)s3)s2)c1`, the TGI was over 100 µM. Same read-out and setting: next, `COc1ccc(-c2nc3ccccc3c(=S)n2OC(C)=O)cc1`: over 25 µM. On to `CCCCCCn1c(-c2ccc(C(=O)O/N=C(\N)c3ccc4c(c3)OCO4)cc2)nc(-c2ccccc2)c1-c1ccccc1`, for which the GI50 was 5.82 µM and the TGI was over 100 µM. On to `O=C(c1ccc([N+](=O)[O-])cc1[N+](=O)[O-])N(/N=C/C=C/c1ccccc1)c1nnc(-c2ccccc2)c(-c2ccccc2)n1`, for which the TGI was over 100 µM. Same read-out and setting: next, `COc1cccc2c1OC(c1cccc3ccccc13)C([N+](=O)[O-])=C2` (centres undefined): 4.3 µM; `OCCCc1ccc2c(c1)[C@H](CO)[C@@H](c1ccc(O)cc1)O2`: over 100 µM; `O=C1C/C(Br)=C\c2ccccc2-c2ccccc21`: 13 µM. As for `C=C(CN(C)Cc1ccccc1)c1ccc(NC(=O)c2ccc(C(=C)CN(C)Cc3ccccc3)cc2)cc1`, the GI50 is over 100 µM and the TGI is over 100 µM.

Consider `O=C(c1ccccc1)c1ccc2c(c1)NC(=O)c1ccccc1SSc1ccccc1C(=O)N2`, for which the TGI is over 100 µM. On the same count and under the same terms, next, `Cc1cc(C)nc(NS(=O)(=O)c2ccc(Nc3c4ccccc4nc4c(C(=O)N5CCN(CCO)CC5)cccc34)cc2)n1`: over 100 µM. As for `O=C(Nc1nc(-c2c[nH]c3ccccc23)cs1)c1n[nH]c(=O)c2ccccc12`, the GI50 was over 68.8 µM and the TGI was over 100 µM. In the case of `CC[C@@H]1NC(C(=O)OC)Cc2c1[nH]c1ccccc21` (some centres undefined), the TGI is over 100 µM. `N#CC(c1ccccc1)N(CCOCCOCCN(C(=O)c1ccccc1)C(C#N)c1ccccc1)C(=O)c1ccccc1` (centres undefined) displayed a TGI of over 100 µM. Turning to `CO[C@@H]1CC[C@]2(C)OC[C@H](C)[C@@H]3C[C@@H](C)[C@@H](OC(C)=O)[C@@H]4[C@H]3[C@@H]2O[C@H]4C[C@@]1(C)O`, the GI50 was over 100 µM and the TGI is over 100 µM. In turn, `CCOc1ccc(OCC(=O)O)c2c1CCCC2=O` displayed a TGI of over 100 µM. The compound `C=C(C)[C@H]1C2=CC(C(=O)OC)=C(C[C@H](C(=C)C)[C@@H](O)[C@@H](O)C3=C[C@H]1OC3=O)O2` had a TGI of over 100 µM. On the same count and under the same terms, the result for `O=C(OCC(Cl)(Cl)Cl)N1CC[C@H](C2CCCCC2)C1` reads 35.4 µM; that for `O=C(CCSC1=NCCCN1)c1ccc(F)cc1`, 34.6 µM. Still for that read-out and setting: next, `CN(C)CCNC(=O)Cc1ccccc1Nc1c(Cl)cccc1Cl`: 27.1 µM; `COc1ccc2oc(=N)c(C(=O)Nc3ccccc3)cc2c1`: over 100 µM; `CN(Cc1cnc2nc(N)nc(N)c2n1)c1ccc(C(=O)N[C@@H](CCS(=O)(=O)O)C(=O)O)cc1`: over 100 µM.

Regarding `O=C1/C(=C/c2ccc(Cl)cc2)CCCc2ccccc21`, the TGI was determined as 48 µM. Still for that read-out and setting: the result for `CCc1c(O)c(O)c(C(C)=O)c2c(O)c(-c3c(C)cc4c(CC)c(O)c(O)c(C(C)=O)c4c3O)c(C)cc12` reads 19.2 µM. On the same count and under the same terms, next, `O=[N+]([O-])c1cc2oc(CSc3ccccc3)nc2cc1Cl`: over 100 µM; `C[N+](C)(C)CC(=O)N/N=C(/Cc1cc(=O)oc2cc(O)ccc12)C(=O)Nc1ccc(Cl)cc1`: over 100 µM. Same read-out and setting: the result for `Cc1ccc(/C=C2/N=C(N/N=C\C(O)C(O)C(O)C(O)CO)NC2=O)cc1` (centres undefined) reads over 100 µM; that for `CCCCCCCCCCCC[N+]12CC[N+](CCN)(CC1)CC2`, over 100 µM; that for `O=c1c2c(no[n+]2[O-])c2ccccc2n1-c1ccccc1`, 31.8 µM.

`COc1c2occc2c(N)c2ccc(=O)oc12` displayed a TGI of over 100 µM.

For the compound `CC(C)N1CCN(c2ccc(OCC3COC(Cn4cncn4)(c4ccc(Cl)cc4Cl)O3)cc2)CC1` (centres undefined), the TGI was 28 µM. Still for that read-out and setting: next, `COc1c(C)c(OCC=C(C)C)cc(CO)c1CO`: over 100 µM. Consider `COc1cc2c(cc1OCCCN1CCN(CCCOc3cc4c(cc3OC)C(=O)N3CC(F)(F)C[C@H]3C=N4)CC1)N=C[C@@H]1CC(F)(F)CN1C2=O`, for which the GI50 was 19.6 µM and the TGI came to 75.2 µM. Turning to `COc1ccc(C(=O)NCCN(C)C)c2nc3ccccc3cc12`, the TGI came to 9.72 µM.

`C[C@@H]1CCC2[C@@H](C)[C@@H](O[C@H]3O[C@@H]4O[C@@]5(C)CCC6[C@H](C)CCC([C@H]3C)[C@]64OO5)O[C@@H]3O[C@@]4(C)CCC1[C@@]23OO4` (some centres undefined) returned a TGI of over 25 µM. Same read-out and setting: next, `c1ccc2c(c1)CCc1c(-c3ccncc3)n[nH]c1-2`: over 100 µM. Regarding `CCOC(=O)c1c(C)c2c(n1Cc1ccccc1)CSCC2=O`, the GI50 is 36.5 µM and the TGI was over 100 µM. In the case of `Cc1cc(N(C)C)c2ccccc2[n+]1CCCCCCCCCC[n+]1c(C)cc(N(C)C)c2ccccc21`, the TGI was determined as 15.6 µM. Same read-out and setting: next, `N#Cc1sc2c(c1OC(=O)c1ccc(C(F)(F)F)cc1)c(=O)n(-c1ccccc1)c(=S)n2-c1ccccc1`: over 100 µM; `CO/N=C(/C(=O)OC)c1ccccc1COc1ccccc1C(F)(F)F`: over 100 µM. `CNc1nncc2[nH]cnc12` came in with a TGI of over 100 µM.

Compound `O=[N+]([O-])c1cccnc1N=Nc1c(O)[nH]c2ccccc12` gave a TGI of 34 µM. `CCN(C(=O)N[C@@H](C)C(=O)N[C@@H](Cc1ccccc1)C(=O)OC)c1ccccc1` yielded a TGI of over 100 µM. Take `COc1ccc(-c2c(C#N)c(N3CCOCC3)nc3[nH]c(=S)[nH]c(=S)c23)cc1OC`: the GI50 was over 100 µM and the TGI is over 100 µM. `CC12c3c4ccc(C=O)c3Oc3ccc(C=O)c(c31)Oc1ccc(C=O)c(c12)O4` had a TGI of over 25 µM. Still for that read-out and setting: the result for `CCOC(=O)CC/C(=N/Nc1ccc(Cl)cc1[N+](=O)[O-])C(=O)OCC` reads over 100 µM; that for `O=C(CN1C(=O)CC(c2ccccc2)(c2ccccc2)C1=O)N1CCN(CCO)CC1`, over 100 µM; that for `C=CCn1c(=O)ccn(/C(=C/C(=O)OCC)C(=O)OCC)c1=O`, 99.7 µM. On to `Nc1c(C(=O)Nc2ccccn2)sc2nc3c(cc12)C(=O)CCC3`, for which the GI50 is 9.18 µM and the TGI is over 100 µM.

Compound `O=C1C=C(Nc2ccc(Cl)cc2C(=O)c2ccccc2)c2ccccc2C1=O` showed a TGI of over 100 µM. Regarding `COc1ccc2c(=O)oc3c(OC)cc(CCN(C)C)c4c(=O)oc1c2c34`, the TGI is 30.8 µM and 17.2 µM. Turning to `O=c1cccc(C#CC#C[C@@H]2O[C@H]2CO)o1`, the GI50 was 1.71 µM and the TGI is 6.74 µM. `CCCCOCCOC1=C(Cl)C(=O)c2c(O)ccc(O)c2C1=O` showed a TGI of 3.21 µM. On the same count and under the same terms, the result for `CC(=O)N/C(=C\c1ccccc1/C=C(\NC(C)=O)c1nc2cc(C)c(C)cc2[nH]1)c1nc2cc(C)c(C)cc2[nH]1` reads over 100 µM; that for `Oc1oc(C(=C2N=c3ccccc3=N2)c2ccc(Cl)cc2)c(O)c1-c1ccc(Cl)cc1`, over 100 µM. `CCCCNCCCNCCCNC(=O)c1csc(-c2csc(CCNC(=O)C(NC(=O)C(C)C(O)C(C)NC(=O)C(NC(=O)c3nc(C(CC(N)=O)NCC(N)C(N)=O)nc(N)c3C)C(OC3OC(CO)C(O)C(O)C3OC3OC(CO)C(O)C(OC(N)=O)C3O)c3cnc[nH]3)C(C)O)n2)n1` (centres undefined): the GI50 was 22.6 µM and the TGI was over 100 µM.

The compound `FC(F)(F)c1ccc2nc(NCc3ccccc3)c(-c3ccccc3)nc2c1` yielded a TGI of over 100 µM.

In turn, `Nc1c(S(=O)(=O)c2ccc(Cl)cc2)c2nc3ccccc3nc2n2ccnc12` came in with a TGI of over 100 µM. Same read-out and setting: next, `O=C(CC(=O)Nc1ccccc1)NNC(Sc1ccccc1)c1cc(N=Nc2ccc(Br)cc2)ccc1O` (centres undefined): over 10 µM. On the same count and under the same terms, next, `O=C(O)c1cccc(S(=O)(=O)NN2C(=O)CSC2c2ccc(Cl)cc2Cl)c1` (centres undefined): over 100 µM.
